Hit rate of the full screen: of about 190,000 compounds, about 360 (0.19%) were called active. Inconclusive results, whose numbers are uncertain, are shown with a selection of clear calls.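 Rule for the calls: active = GTP binding activity at least 20 points away from 100%, either lowered or raised; inconclusive = signal likely due to the compound's own green fluorescence; inactive = the rest.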
The compounds below were run against Ras-related protein Rab-2A (Canis lupus familiaris) (UniProt P61105) (assay: Rab2 wt fluorescent GTP binding changes, either direction – biochemical, dog, bead-based flow cytometry, multiplex, primary screen (AID 760;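 note: 0% = beads with excess unlabeled GTP and 100% = no-compound control corrected for plate trend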)). Conditions: GST-Rab2 wt beads, Bodipy-GTP binding, at 10 µM.

GTP binding activity, active:
COc1cc(/C=C2\SC(c3ccccc3)=NC2=O)cc(Cl)c1O 77%

GTP binding activity, inactive:
COc1ccc(CNC(=O)/C(C#N)=C2\N=C(NC(=O)c3cccs3)c3ccccc32)cc1 97%, CCC/C(O)=C1\C(=O)CCCC1=NCCc1c(C)[nH]c2ccc(OC)cc12 102%, CC(Oc1ccc(F)cc1)C(O)CCN(C)C (centres undefined) 97%, O=C(O)CCSc1nc2ccccc2s1 98%, O=c1cc(CSc2nc3ccccc3c(=O)[nH]2)c2ccc(O)cc2o1 89%, Cc1nn(CCc2nn[nH]n2)c2nc(-c3ccc(C4CCCCC4)cc3)cc(C(F)(F)F)c12 81%, CCc1ccccc1NC(=S)N(CCN(C)C)Cc1cccs1 98%, CCN(CC)C(=O)CC(c1ccc(F)cc1)c1ccc(OC(C)C)cc1 (centres undefined) 98%, CCCn1c(SCC(=O)N2CCCC(C)C2)nnc1-c1ccccn1 (centres undefined) 97%, Cc1ccnc(NS(=O)(=O)c2ccc(NC(=O)c3ccc(S(=O)(=O)N(C)C)cc3)cc2)n1 98%, O=C(CSc1ncnc2sc(-c3ccccc3)cc12)NC1CCS(=O)(=O)C1 (centres undefined) 95%, CC1CN(C(=O)Cc2ccc(-c3ccccc3)cc2)CC(C)O1 (centres undefined) 93%, COC(=O)c1ccc(CSc2nnc(NC(=O)C3CC(=O)N(c4ccc5c(c4)OCCO5)C3)s2)cc1 (centres undefined) 97%

GTP binding activity, inconclusive:
C=CCOc1ccc(CN(C)CC(=O)Nc2ccc3c(c2)CCC3)cc1 91%, Oc1c(Cl)cc(Cl)cc1C=Nc1ccccc1N1CCCC1 92%, COc1ccc2nc(C)cc(SCC(=O)N/N=C/c3ccc(O)cc3O)c2c1 75%, C=CCn1c(C)cc(C(=O)CN2C(=O)c3ccccc3C2=O)c1C 107%, Cc1ccc(COC(=O)c2ccc3c(c2)C(=O)N(CCCN2CCOCC2)C3=O)cc1 91%, Cn1c(-c2ccccc2)cnc1N 103%, CCCC1=C(C(=O)OCC)C(c2cccs2)C(C#N)=C(N)O1 (centres undefined) 94%, Cc1nc2ccccc2c(=O)n1CCN1CCOCC1 105%, CC(C)NC(=O)C(OC(=O)c1ccccc1)C(OC(=O)c1ccccc1)C(=O)O (centres undefined) 105%, Nc1nc(N)c2sc3nc4c(cc3c2n1)CCC4 80%, C=CCn1c(=O)n2ncnc2c2c3c(sc21)CCCC3 87%, O=C(CSc1nc(-c2ccccc2)nc2c1Cc1ccccc1O2)Nc1ccc(C(=O)O)cc1 91%, Cn1c(=O)n(Cc2ccccc2F)c(=O)c2c1nc1n2CCCN1CCc1ccccc1 94%, CC(C)n1cc(/C=C(\C#N)S(=O)(=O)c2ccccc2)c2ccccc21 102%, Cc1cc(C)n2nc(SCN3C(=O)c4ccccc4C3=O)nc2n1 108%, NC(=S)N/N=C/c1ccc(-c2cc(Cl)cc(Cl)c2)o1 86%, CC(c1nnnn1C(C)(C)C)N(Cc1cccnc1)Cc1ccccc1Cl (centres undefined) 92%, CC(=O)c1sc(N/N=C/c2cccc(O)c2)nc1C 85%, CC(OC(=O)c1cc2c(ccc3ccccc32)oc1=O)c1nc2ccccc2s1 (centres undefined) 82%, CC(=O)N1CCN=C1SCc1ccc(Br)cc1 106%, O=C(CN1CCN(c2ccc(F)cc2)CC1)Nc1cccc(C(F)(F)F)c1 98%, COc1ccc(CN2C(=O)NC3(CCCC3)C2=O)cc1F 97%, CCC(=O)NC(=S)Nc1cccc(NC(=O)c2ccco2)c1 94%, O=C(Nc1ccc([N+](=O)[O-])cc1Br)c1cccnc1 97%, CCOC(=O)c1sc(N)c(C(N)=O)c1C 90%, CCCCC1(CC)C(=O)NC(=O)NC1=Nc1ccc(OC)cc1 (centres undefined) 106%, CCN(CC)S(=O)(=O)c1ccc(NC(=S)NC(=O)CC(C)C)cc1 96%, CCCN1C(=O)/C(=C/c2ccc(C)o2)SC1=Nc1ccc(OCC)cc1 106%, CCCCn1nnc(NC(=O)c2ccc(-c3cccc([N+](=O)[O-])c3)o2)n1 93%, COc1c(C)cc(Br)cc1C(=O)Nc1cccc(-c2nc3ncccc3o2)c1 80%, C#CCN1C(=O)C(O)(CC(=O)c2cc(OC)ccc2OC)c2ccccc21 (centres undefined) 106%, Cc1cc(C(=O)NNC(=O)CCCCC(=O)NNC(=O)c2cc(C)[nH]n2)n[nH]1 95%, COC(=O)c1cc(OC)c(OC)cc1NC(=O)c1ccc(C)o1 82%, O=[N+]([O-])c1ccc(S(=O)(=O)NCCN2CCOCC2)cc1 97%, CSCC[C@H](NC(=O)Nc1ccc(C)cc1C)C(=O)O 101%, COc1c(C(=O)Nc2c(C)n(C)n(-c3ccccc3)c2=O)ccc2ccccc12 105%, O=C(CN1C(=O)CCC1=O)NCC12CC3CC(CC(C3)C1)C2 89%, Cc1ccc(CN2C(=O)CCC2C(=O)NC(C)C)cc1 (centres undefined) 102%, COc1cc(S(=O)(=O)Nc2ncccc2C)c(OC)cc1Cl 105%, CCCCCn1nc(C(=O)OCC(=O)c2c(N)n(C)c(=O)n(C)c2=O)c2ccccc2c1=O 76%, O=C(CCN1C(=O)COc2ccccc21)NCc1cccs1 94%, Cc1cc(C(C)(C)C)oc1C(=O)NCCCNC(=O)c1oc(C(C)(C)C)cc1C 86%, O=c1[nH]c2cc3c(cc2cc1CN(Cc1cccnc1)C(=S)NCc1ccco1)OCCO3 96%, CC(=O)N1c2ccccc2C(=O)OC1c1cccnc1 (centres undefined) 103%, CCOC(=O)CN1C=C(c2ccc3ccccc3n2)C(C[N+](=O)[O-])c2ccccc21 (centres undefined) 111%

— PubChem BioAssay AID760 (NMMLSC, 2007)
